{"sequences": {"note": "Sequences of proteins named here, by UniProt entry; tags and fusion partners are left off. A change or cut given only in a name is not applied to a line headed by its entry. Residues count along the entry.", "UniProt Q8N884": "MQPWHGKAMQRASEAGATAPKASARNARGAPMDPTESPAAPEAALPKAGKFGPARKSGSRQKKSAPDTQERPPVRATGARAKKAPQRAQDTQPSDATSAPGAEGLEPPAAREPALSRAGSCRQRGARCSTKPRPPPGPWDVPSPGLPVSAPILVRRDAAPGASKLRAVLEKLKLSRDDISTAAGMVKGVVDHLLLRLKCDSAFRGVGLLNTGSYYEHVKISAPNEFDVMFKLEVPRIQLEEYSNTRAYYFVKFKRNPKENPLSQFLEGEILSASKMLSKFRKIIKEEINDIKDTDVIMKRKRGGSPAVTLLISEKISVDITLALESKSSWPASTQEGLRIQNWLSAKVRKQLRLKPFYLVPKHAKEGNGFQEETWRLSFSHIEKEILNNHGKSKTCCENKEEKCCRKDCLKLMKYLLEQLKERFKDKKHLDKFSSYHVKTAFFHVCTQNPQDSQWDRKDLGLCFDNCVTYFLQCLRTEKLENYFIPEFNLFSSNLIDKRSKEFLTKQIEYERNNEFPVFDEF", "His-Xp-cGAS-1–330": "residues 1-330 of Q8N884", "His-Xp-cGAS-1–213": "residues 1-213 of Q8N884", "His-Xp-cGAS-213–522": "residues 213-522 of Q8N884", "His-Xp-cGAS-330–522": "residues 330-522 of Q8N884", "UniProt P51812": "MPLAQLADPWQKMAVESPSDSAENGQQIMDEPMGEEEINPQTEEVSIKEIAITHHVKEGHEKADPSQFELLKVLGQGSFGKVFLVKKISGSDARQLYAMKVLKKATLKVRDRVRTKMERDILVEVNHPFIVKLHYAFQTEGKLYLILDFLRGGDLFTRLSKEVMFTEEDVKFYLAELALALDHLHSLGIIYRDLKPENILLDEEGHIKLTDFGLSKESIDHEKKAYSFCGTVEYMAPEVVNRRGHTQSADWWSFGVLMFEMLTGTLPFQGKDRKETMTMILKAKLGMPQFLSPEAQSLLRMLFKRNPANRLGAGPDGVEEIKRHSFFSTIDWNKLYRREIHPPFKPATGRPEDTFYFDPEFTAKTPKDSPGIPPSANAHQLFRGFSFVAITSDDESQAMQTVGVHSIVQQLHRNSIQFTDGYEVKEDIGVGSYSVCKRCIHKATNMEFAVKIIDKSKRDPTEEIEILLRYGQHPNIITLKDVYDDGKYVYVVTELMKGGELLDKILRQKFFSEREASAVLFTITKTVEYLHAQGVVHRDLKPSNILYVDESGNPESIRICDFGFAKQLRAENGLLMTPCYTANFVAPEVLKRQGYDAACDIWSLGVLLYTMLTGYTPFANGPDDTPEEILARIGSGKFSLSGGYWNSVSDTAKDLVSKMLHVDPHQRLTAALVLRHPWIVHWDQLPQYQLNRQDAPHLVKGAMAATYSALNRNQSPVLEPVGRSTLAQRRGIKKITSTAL"}, "source": "paper PMC11492232", "key": {"[1]": {"target": "His-Xp-cGAS-1–213 (human) (UniProt Q8N884)", "assay": "co-IP; lysates of HEK293T cells transiently expressing HA-RSK2 and His-Xp-cGAS constructs; Western blot"}, "[2]": {"target": "His-Xp-cGAS-1–330 (human) (UniProt Q8N884)", "assay": "co-IP; lysates of HEK293T cells transiently expressing HA-RSK2 and His-Xp-cGAS constructs; Western blot"}, "[3]": {"target": "His-Xp-cGAS-213–522 (human) (UniProt Q8N884)", "assay": "co-IP; lysates of HEK293T cells transiently expressing HA-RSK2 and His-Xp-cGAS constructs; Western blot"}, "[4]": {"target": "His-Xp-cGAS-330–522 (human) (UniProt Q8N884)", "assay": "co-IP; lysates of HEK293T cells transiently expressing HA-RSK2 and His-Xp-cGAS constructs; Western blot"}, "His-Xp-cGAS-FL (human)": {"target": "His-Xp-cGAS-FL (human) (UniProt Q8N884)", "assay": "co-IP; lysates of HEK293T cells transiently expressing HA-RSK2 and His-Xp-cGAS constructs; Western blot"}, "Flag-cGAS (human)": {"target": "Flag-cGAS (human) (UniProt Q8N884)", "assay": "co-IP; lysates of SK-MEL-2 cells stably expressing HA-RSK2 and Flag-cGAS; RIPA lysis buffer, protein G Sepharose, 4 °C; wash 20 mM Tris pH 8.0, 100 mM NaCl, 1 mM EDTA, 0.5% NP-40; Western blot"}, "His-cGAS (human)": {"target": "His-cGAS (human) (UniProt Q8N884)", "assay": "pull-down; partially purified His-cGAS bound to HisPur Ni-NTA resin, combined with lysates of SK-MEL-2 cells stably expressing HA-mock or HA-RSK2, with or without EGF (10 ng/ml), overnight at 4 °C; wash 100 mM NaCl, 20 mM Tris pH 8.0, 1 mM EDTA, 0.5% NP-40; blot with RSK2 and HA antibodies; only the target purified"}, "HA-cGAS (human)": {"target": "HA-cGAS (human) (UniProt Q8N884)", "assay": "co-IP; lysates of HEK293T cells transiently expressing HA-cGAS and His-Xp-RSK2 constructs; RSK2 band detected in the precipitate; Western blot"}, "[5]": {"target": "endogenous cGAS (human (endogenous in SK-MEL-2)) (UniProt Q8N884)", "assay": "co-IP; endogenous cGAS and RSK2 in SK-MEL-2 cell lysate; protein G Sepharose, 4 °C; Western blot"}}, "note": "Results are given in words; binding and its absence hold for the method and conditions named. Binding seen in cells or lysates may run through a third protein. Some entries that bind do so weakly or less than the wild type.", "data": [{"substance": "HA-RSK2 (from UniProt P51812 1-740) (enzyme)", "values": [{"measurement": "binding", "setting": "[1]", "result": "no binding"}, {"measurement": "binding", "setting": "[2]", "result": "binds"}, {"measurement": "binding", "setting": "[3]", "result": "binds"}, {"measurement": "binding", "setting": "[4]", "result": "no binding"}, {"measurement": "binding", "setting": "His-Xp-cGAS-FL (human)", "result": "binds"}, {"measurement": "binding", "setting": "Flag-cGAS (human)", "result": "binds"}, {"measurement": "binding", "setting": "His-cGAS (human)", "result": "binds"}]}, {"substance": "His-Xp-RSK2-FL (from UniProt P51812 1-740) (enzyme)", "values": [{"measurement": "binding", "setting": "HA-cGAS (human)", "result": "binds"}]}, {"substance": "endogenous RSK2 (from UniProt P51812 1-740) (enzyme)", "values": [{"measurement": "binding", "setting": "[5]", "result": "binds"}]}]}
